Results from PubChem BioAssay AID504637 (National Center for Advancing Translational Sciences (NCATS), 2011).
Where “and” joins values, the source holds several entries; their conditions need not be identical. Identical values can stand only once. In all, about 1,100 compounds went through this assay and about 430 (39%) were called active. So high a share suggests a set chosen from earlier hits. Inconclusive results, whose numbers are uncertain, are shown with a selection of clear calls. Calls follow the shape of the dose curve; as a rule, active = well fitted inhibition curve with a large enough effect; inconclusive = small, poorly fitted or top-dose-only effect, or effect the other way; inactive = flat fitted curve, though single readings scatter. Potencies of inconclusive entries are doubtful fits and often do not repeat.

Biological target: ATP-dependent 6-phosphofructokinase (Trypanosoma brucei brucei) (UniProt O15648)
Assay: Inhibitors of T. brucei phosphofructokinase: Hit Validation; also: nearly all actives have a fitted effect of over 60% in size
Conditions: purified T. brucei PFK, ADP-Glo luminescence, 45 min; series mostly up to 57.5 µM; activity change, negative = inhibition: at the top concentration
Description: NCGC Assay Overview: Various species of the protozoan family Trypanosomatidae are responsible for a range of serious human diseases in tropical and subtropical areas of the world. […] Many of the disorders caused by trypanosomatids are fatal if left untreated, but most currently used drugs are inefficient and toxic. […] Oxidative metabolism involving the mitochondrial tricarboxylic acid cycle and oxidative phosphorylation are repressed in these parasites, and recent RNA interference (RNAi) experiments have shown that even partial depletion of certain individual glycolytic enzymes can lead to the death of cultured parasites. One such glycolytic enzyme, phosphofructokinase (PFK), catalyzes the formation of fructose-1,6-bisphosphate (F1,6BP) and ADP from fructose-6-phosphate (F6P) and ATP, and in many metabolic circumstances makes an important contribution to the control of flux through the glycolytic pathway. As a specific glycolytic target, PFK is particularly attractive as it catalyzes the first irreversible step in glycolysis, and structural and kinetic studies have shown very substantial and essential differences from corresponding host enzymes, allowing for the discovery of parasite-selective inhibitors. The goal of this screen is to find small-molecule inhibitors of T. brucei PFK using a biochemical assay that measures PFK activity as a function of ADP production. A luminescence-based assay for T. brucei PFK activity has been developed which uses luciferase to detect production of ADP. Traditional luciferase-based nucleotide detection reagents rely on ATP production as a direct substrate for the luciferase reaction; however, PFK catalyzes the transfer of a phosphate from ATP to F6P, resulting in the net depletion of ATP. To directly measure the ADP product of the PFK reaction, we used the ADP-Glo detection kit (Promega), which utilizes two separate reactions to 1) deplete all remaining uncatalyzed ATP and 2) convert all remaining ADP to ATP, which is then detected through a traditional luciferase-coupled reaction. Compounds were screened as a concentration-titration series that ranged from 57uM to 0.7nM. 1. Verlinde, C.L., et al., Glycolysis as a target for the design of new anti-trypanosome drugs. Drug Resist Updat, 2001. 4(1): p. 50-65. 2. Albert, M.A., et al., Experimental and in silico analyses of glycolytic flux control in bloodstream form Trypanosoma brucei. J Biol Chem, 2005. 280(31): p. 28306-15. 3. […] J Mol Biol, 2009. 385(5): p. 1519-33. NIH Molecular Libraries Probe Production Network [MLPCN] NIH Chemical Genomics Center [NCGC] Grant: 1 R03 MH092153-01 PI Name: Malcolm Walkinshaw, University of Edinburgh
NCGC Assay Protocol Summary: Substrate buffer was dispensed into white, solid 1536-well plates at 3uL/well in 0.1M triethanolamine (TEA) buffer, pH 8.0, containing final concentrations of 5 mM MgCl2, 0.01% Tween20, 0.5 mM fructose-6-phosphate (F6P) and 0.1mM ATP. Then, 23 nL of compounds or DMSO were delivered to each well using a pin tool. One uL T. brucei PFK (0.1M TEA, 0.01% Tween20, 0.1% bovine serum albumin (BSA) and 1.25nM PFK, final concentrations) was then dispensed, and plates were incubated at room temperature for 45 min. The luminescent detection reagent, ADP-Glo (Promega), was then added in two steps: the first reagent, ADP-Glo (which converts remaining uncatalyzed ATP), was added at 2.5uL/well and incubated for ten minutes at room temperature, and the second component, Kinase Detection reagent (which converts ADP to ATP as a substrate for luciferase-based luminescence), was added immediately after at 5uL/well, followed by one final ten minute room temperature incubation. The plates were measured on a ViewLux plate reader for luminescent signal using a clear filter with a one second exposure. The %Activity was determined from the corrected luminescence values. […]
Potency is read from the fitted curve at half-maximal effect; tags tell the direction and shape of the fitted curve.

Chain of UniProt O15648 (O15648 whole entry, looked up): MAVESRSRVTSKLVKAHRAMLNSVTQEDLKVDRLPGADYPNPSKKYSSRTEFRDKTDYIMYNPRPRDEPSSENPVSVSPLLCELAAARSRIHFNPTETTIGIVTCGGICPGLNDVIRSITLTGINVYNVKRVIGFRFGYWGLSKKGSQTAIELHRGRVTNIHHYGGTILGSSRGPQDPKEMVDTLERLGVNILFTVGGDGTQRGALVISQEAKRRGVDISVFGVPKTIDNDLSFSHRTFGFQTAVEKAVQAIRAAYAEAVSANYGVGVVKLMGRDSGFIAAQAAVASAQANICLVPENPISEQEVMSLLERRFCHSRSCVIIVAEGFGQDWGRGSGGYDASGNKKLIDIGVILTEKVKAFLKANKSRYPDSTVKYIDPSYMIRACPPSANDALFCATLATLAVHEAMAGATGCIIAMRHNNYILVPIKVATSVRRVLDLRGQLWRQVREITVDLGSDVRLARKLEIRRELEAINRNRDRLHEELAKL

| Compound | Potency | activity change, negative = inhibition |
| --- | --- | --- |
| Nc1c(/C=C2/C=CC(=O)C(O)=C2)c(=O)nc2sc(CC(=O)N3CCCCC3)nn12 | active: 3.79 µM |  |
| COc1cccc(NC(=S)Nc2ccc(O)cc2)c1 |  | inactive: -14% |
| CC(NC(=O)CCl)c1ccc(Cl)c(Cl)c1 (centres undefined) | active: 23.9 µM |  |
| O=C(Nc1cccc(-c2nnn(CC(=O)N3CCc4ccccc4C3)n2)c1)C1CCC1 | inconclusive: 26.9 µM [inhibitor, single point] |  |
| O=C(COC(=O)Cc1ccc(F)cc1)Nc1ccc2[nH]c(=O)[nH]c2c1 | inconclusive: 23.9 µM [inhibitor, partial curve] |  |
| Cc1c(Br)c([N+](=O)[O-])nn1CC(=O)Nc1ccc2nc3n(c(=O)c2c1)CCCC3 | inconclusive: 26.9 µM [inhibitor, single point] |  |
| COc1ccc(-n2sc3ccc(F)cc3c2=O)cc1 | inconclusive: 37.9 µM [inhibitor, single point] |  |
| O=c1c2ccccc2sn1-c1cc(S(=O)(=O)N2CCOCC2)ccc1N1CCCC1 | inconclusive: 23.9 µM [inhibitor, single point] |  |
| CC(=O)n1cc(C(C[N+](=O)[O-])SCCN)c2ccccc21 (centres undefined) | inconclusive: 4.26 µM [activator, full curve] |  |
| C=CCSC1=N/C(=C\C=C\c2ccco2)C(=O)S1 | inconclusive: 33.8 µM [inhibitor, single point] |  |
| O=C1/C(=C/c2ccc(O)c(O)c2)Oc2cc(O)ccc21 | inconclusive: 6.01 µM [activator, partial curve] |  |
| O=c1c2ccccc2sn1-c1nccs1 | inconclusive: 37.9 µM [inhibitor, single point] |  |
| O=c1c2cc(F)ccc2sn1-c1ccccc1 | inconclusive: 33.8 µM [inhibitor, single point] |  |
| CCOC(=O)C1=C(N)OC2=C(C(=O)CC(C)(C)C2)C1c1cc(CSc2nnnn2C)cs1 (centres undefined) |  | inactive: 1.39% |
| CCn1c2ccccc2c2cc(NC(=O)CSc3nnc(C4CC4)n3Cc3ccco3)ccc21 |  | inactive: -27.7% |
| Cc1cc(C(=O)COC(=O)c2cc(Cl)c(O)c(Cl)c2)c(C)n1C |  | inactive: -18.2% |
| CS(=O)(=O)N1Cc2ccccc2CC1C(=O)OCC(=O)Nc1ccc2ccccc2c1 (centres undefined) |  | inactive: -23.2% |
| O=C(O)c1ccc(Cl)c(S(=O)(=O)Nc2cccc(C(=O)Nc3cccc(C(F)(F)F)c3)c2)c1 | inconclusive: 37.9 µM [inhibitor, single point] |  |
| c1ccc(-c2csc(-n3cnnn3)n2)cc1 |  | inactive: -24.3% |
| CCOC(=O)c1c(-c2ccc(OC)cc2)csc1/N=C/C1=C(O)CCCC1=O |  | inactive: -2.04% |
| COCCCNC(=O)c1cc(=O)n(Cc2ccc(Cl)cc2)c2ccccc12 | inconclusive: 30.1 µM [inhibitor, single point] |  |
| O=[N+]([O-])c1ccccc1CNc1ccc(F)c(Cl)c1 | inconclusive: 33.8 µM [inhibitor, partial curve] |  |
| CCOC(=O)c1c(-c2ccco2)csc1NC(=O)COC(=O)c1cnccn1 |  | inactive: -27.2% |
| Nc1ccc2nc(-c3cccc(-c4nc5ccc(N)cc5[nH]4)c3)[nH]c2c1 |  | inactive: 1.34% |
| O=c1c(O)c(-c2cc(O)c(O)c(O)c2)oc2cc(O)cc(O)c12 | active: 3.79 µM |  |

| Compound | Potency | activity change, negative = inhibition |
| --- | --- | --- |
| O=C(CCC(=O)N1CCN(c2cccc(Cl)c2)CC1)N1CCN(c2ccccc2)CC1 | inconclusive: 23.9 µM [inhibitor, single point] |  |
| O=C(COc1ccc(Cl)cc1Cl)Nc1ccc(S(=O)(=O)NC2=NCCCCC2)cc1 | active: 30.1 µM |  |
| COc1cccc(OC)c1-c1nn2c(-c3cc(-c4ccccc4)n[nH]3)nnc2s1 | inconclusive: 3.01 µM [activator, full curve] |  |
| N#Cc1c(F)cccc1NCc1cccs1 | inconclusive: 19 µM [inhibitor, partial curve] |  |
| Nc1ccccc1SSc1ccccc1N | active: 13.5 µM |  |
| COc1cc(N[C@@H](C)CCCN)c2ncccc2c1 |  | inactive: -5.33% |
| O=c1c2ccccc2sn1-c1cc(S(=O)(=O)N2CCOCC2)ccc1N1CCOCC1 | active: 21.3 µM |  |
| Cc1noc(NS(=O)(=O)c2ccc(NC(=O)c3cnc4scc(C)n4c3=O)cc2)c1C | inconclusive: 2.69 µM [activator, full curve] |  |
| C=CCNc1nc(C(=O)OCC(=O)c2ccccc2)cs1 |  | inactive: -7.55% |
| Nc1c(C(=O)NC2CC2)sc2nc3c(c(-c4ccco4)c12)CC/C3=C/c1ccco1 | inconclusive: 37.9 µM [inhibitor, partial curve, poor fit] |  |
| Cc1[nH]nc2c1C(c1cc(Br)cs1)C(C#N)=C(N)O2 (centres undefined) | inconclusive: 21.3 µM [inhibitor, partial curve] |  |
| Cc1ncc([N+](=O)[O-])n1CC(=O)Nc1ccc(F)c(F)c1 | inconclusive: 37.9 µM [inhibitor, single point] |  |
| Cc1cc(NC(=O)Cn2nc([N+](=O)[O-])c(Br)c2C)no1 | inconclusive: 23.9 µM [inhibitor, partial curve] |  |
| C=C1c2c(Cl)ccc(O)c2C(O)=C2C(=O)[C@]3(O)C(O)=C(C(N)=O)C(=O)[C@@H](N(C)C)[C@@H]3[C@@H](O)C12 (some centres undefined) |  | inactive: -15.8% |
| O=C1C(Cl)=C(N2CCCCC2)C(=O)N1c1ccccc1 |  | inactive: 13.2% |
| CC(=O)c1ccc(NC(=S)Nc2ccc(Br)c(Cl)c2)cc1 | inconclusive: 37.9 µM [inhibitor, single point] |  |
| O=C(COc1ccc(F)cc1Cl)Nc1ccc(S(=O)(=O)Nc2nccs2)cc1 | active: 1.07 µM |  |
| NS(=O)(=O)c1ccc(NC(=O)C2COc3ccccc3O2)cc1 (centres undefined) | active: 30.1 µM |  |
| Cc1cc(C)c2c(=O)n(CC(=O)Nc3ccc(Cl)cc3)sc2n1 | active: 3.79 µM |  |
| CCOC(=O)c1cn(Cc2cccc(Cl)c2)nn1 | inconclusive: 30.1 µM [inhibitor, partial curve] |  |
| N#Cc1c(N)nc2c(c1N)CC(CCl)O2 (centres undefined) |  | inactive: 2.7% |
| O=C(CCNc1ccc(Cl)c(C(F)(F)F)c1)c1ccco1 | inconclusive: 23.9 µM [inhibitor, single point] |  |
| Cc1ccc(C(=O)CSc2nnc(CNc3ccc(F)cc3)o2)cc1 | active: 23.9 µM |  |
| CC1(C)OC(=O)C(=Cc2ccc(-c3ccc(S(N)(=O)=O)cc3)o2)C(=O)O1 | inconclusive: 3.38 µM [activator, partial curve] |  |
| Nc1nonc1C(=O)N/N=C/c1ccc(-c2ccc(Cl)c(C(=O)O)c2)o1 | inconclusive: 16.9 µM [activator, partial curve] |  |

| Compound | Potency | activity change, negative = inhibition |
| --- | --- | --- |
| O=C(NCc1ccc(F)cc1)C(=O)NCC1CCCN1S(=O)(=O)c1ccccc1 (centres undefined) | inconclusive: 33.8 µM [inhibitor, single point] |  |
| O=C(OCc1ccc(Cl)c(Cl)c1)c1cnccn1 | active: 26.9 µM |  |
| NS(=O)(=O)c1ccc(NC(=S)Nc2ccc(Br)c(Cl)c2)cc1 | inconclusive: 30.1 µM [inhibitor, partial curve] |  |
| CCN(CC)c1ccc(SS(=O)(=O)O)cc1 | active: 21.3 µM and active: 12 µM |  |
| Nc1nc(=S)c2[nH]cnc2[nH]1 | inconclusive: 37.9 µM [inhibitor, single point] |  |
| CC(C)CN1C(=S)SC(C)(C)C1n1oc(=O)n(-c2ccc(Cl)cc2)c1=O (centres undefined) |  | inactive: -4.48% |
| COc1cc(C=NNC(=O)c2ccc(NS(=O)(=O)c3cccs3)cc2)cc(Br)c1O | inconclusive: 19 µM [activator, partial curve] |  |
| Cc1ccc(S(=O)(=O)CCC(=O)c2cccc([N+](=O)[O-])c2)cc1 | inconclusive: 37.9 µM [inhibitor, single point] |  |
| CCSc1nnc(NC(=O)COc2ccc3ccccc3c2)s1 | inconclusive: 8.49 µM [activator, partial curve] |  |
| O=c1c2ccccc2sn1-c1ccc(F)cc1 | inconclusive: 21.3 µM [inhibitor, single point] |  |
| Cc1ccccc1CN1C[C@@H]2C[C@@H](c3cn(C)nc3-c3ccccc3)N3CCC[C@@]23C1=O |  | inactive: -23.6% |
| Cn1cccc1/C=C1/SC(=S)N(CC(=O)O)C1=O | inconclusive: 23.9 µM [activator, single point] |  |
| CCCCCCCCCCCCCCCCn1cc[n+](CC(C)=O)c1 |  | inactive: -6.96% |
| O=C(CN1CCOCC1)Nc1ncc(Cc2cccc(Cl)c2)s1 | inconclusive: 21.3 µM [inhibitor, single point] |  |
| C/C(=N\NC(=O)CNc1cccc(Cl)c1C)C1CC1 | inconclusive: 30.1 µM [inhibitor, single point] |  |
| ClC(Cl)(c1nnnn1-c1ccccc1)c1nnnn1-c1ccccc1 | active: 10.7 µM |  |
| Cc1ccc(-c2nc3c(c(SCC(=O)Nc4cccc(C(=O)O)c4)n2)Cc2cccc(C)c2O3)cc1 | inconclusive: 0.953 µM [inhibitor, full curve] |  |
| Fc1ccc(C2CC(c3ccco3)=Nc3ccccc3S2)cc1 (centres undefined) |  | inactive: -11.9% |
| Cc1cc([N+](=O)[O-])nn1CCCC(=O)Nc1sc2c(c1C(N)=O)CCCC2 | active: 23.9 µM |  |
| COc1cc(O)c2c(=O)c3c(O)ccc(O)c3oc2c1 | inconclusive: 3.01 µM [inhibitor, full curve] |  |
| O=C(CSc1ccc(Cl)cc1)NCc1ccco1 |  | inactive: -17.4% |
| Cc1ccc(NC(=O)CN(C)C(=O)c2cccc(-n3cccc3)c2)cc1 | inconclusive: 6.01 µM [inhibitor, partial curve] |  |
| O=c1cc(-c2ccc(O)c(O)c2)oc2cc(O[C@@H]3O[C@H](CO)[C@@H](O)[C@H](O)[C@H]3O)cc(O)c12 | inconclusive: 9.53 µM [inhibitor, partial curve] |  |
| O=C(Nc1ccc(Cl)c([N+](=O)[O-])c1)ONC1=NCCCCC1 | inconclusive: 30.1 µM [inhibitor, partial curve] |  |
